Experimental data from paper PMC6704089.
No constants are given. Whether binding was seen depends on the method and setting. Some binding calls cover weakened binding; strength is not graded here. Sequences can lack the tags named with a protein.

Experiments:
[1] = target: T1, UBIQUITIN-SPECIFIC PROTEASE 12 (UBP12), full length, yeast two-hybrid fusion (Arabidopsis thaliana) (UniProt Q9FPT1); assay: two-hybrid; yeast two-hybrid, GAL4-BD and GAL4-AD fusions; growth on SD-LW for selection and on SD-LWHA to test for interactions
T1 sequence: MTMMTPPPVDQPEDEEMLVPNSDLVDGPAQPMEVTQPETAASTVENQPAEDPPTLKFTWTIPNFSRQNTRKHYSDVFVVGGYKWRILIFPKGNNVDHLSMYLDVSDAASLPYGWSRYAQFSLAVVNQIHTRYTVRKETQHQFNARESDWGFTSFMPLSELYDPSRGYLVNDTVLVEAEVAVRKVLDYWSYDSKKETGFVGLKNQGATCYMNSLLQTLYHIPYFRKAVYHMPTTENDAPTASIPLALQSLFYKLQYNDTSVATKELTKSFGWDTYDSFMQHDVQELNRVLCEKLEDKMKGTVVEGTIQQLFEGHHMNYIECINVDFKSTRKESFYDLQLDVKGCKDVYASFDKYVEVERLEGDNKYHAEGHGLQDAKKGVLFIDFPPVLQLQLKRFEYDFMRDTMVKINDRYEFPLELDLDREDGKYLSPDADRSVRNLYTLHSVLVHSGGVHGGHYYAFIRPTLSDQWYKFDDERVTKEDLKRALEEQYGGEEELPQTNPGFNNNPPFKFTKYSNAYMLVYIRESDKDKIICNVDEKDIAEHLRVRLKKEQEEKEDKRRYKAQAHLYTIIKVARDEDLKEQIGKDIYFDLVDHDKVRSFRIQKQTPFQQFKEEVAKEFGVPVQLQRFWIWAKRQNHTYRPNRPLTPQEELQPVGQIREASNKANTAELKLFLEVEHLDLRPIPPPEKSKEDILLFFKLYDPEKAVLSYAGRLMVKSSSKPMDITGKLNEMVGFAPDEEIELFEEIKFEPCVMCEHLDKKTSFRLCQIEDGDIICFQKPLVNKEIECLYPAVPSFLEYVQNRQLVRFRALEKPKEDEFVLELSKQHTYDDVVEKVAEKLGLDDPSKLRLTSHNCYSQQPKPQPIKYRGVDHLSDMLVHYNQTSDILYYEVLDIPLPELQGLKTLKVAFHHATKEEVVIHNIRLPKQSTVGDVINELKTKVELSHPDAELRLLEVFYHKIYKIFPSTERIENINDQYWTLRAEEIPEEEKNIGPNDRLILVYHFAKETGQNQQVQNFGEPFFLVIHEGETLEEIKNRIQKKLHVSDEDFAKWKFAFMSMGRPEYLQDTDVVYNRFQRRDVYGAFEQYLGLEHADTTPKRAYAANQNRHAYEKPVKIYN

[2] = target: T2, UBIQUITIN-SPECIFIC PROTEASE 13 (UBP13), full length, yeast two-hybrid fusion (Arabidopsis thaliana) (UniProt Q84WU2); assay: as above
T2 sequence: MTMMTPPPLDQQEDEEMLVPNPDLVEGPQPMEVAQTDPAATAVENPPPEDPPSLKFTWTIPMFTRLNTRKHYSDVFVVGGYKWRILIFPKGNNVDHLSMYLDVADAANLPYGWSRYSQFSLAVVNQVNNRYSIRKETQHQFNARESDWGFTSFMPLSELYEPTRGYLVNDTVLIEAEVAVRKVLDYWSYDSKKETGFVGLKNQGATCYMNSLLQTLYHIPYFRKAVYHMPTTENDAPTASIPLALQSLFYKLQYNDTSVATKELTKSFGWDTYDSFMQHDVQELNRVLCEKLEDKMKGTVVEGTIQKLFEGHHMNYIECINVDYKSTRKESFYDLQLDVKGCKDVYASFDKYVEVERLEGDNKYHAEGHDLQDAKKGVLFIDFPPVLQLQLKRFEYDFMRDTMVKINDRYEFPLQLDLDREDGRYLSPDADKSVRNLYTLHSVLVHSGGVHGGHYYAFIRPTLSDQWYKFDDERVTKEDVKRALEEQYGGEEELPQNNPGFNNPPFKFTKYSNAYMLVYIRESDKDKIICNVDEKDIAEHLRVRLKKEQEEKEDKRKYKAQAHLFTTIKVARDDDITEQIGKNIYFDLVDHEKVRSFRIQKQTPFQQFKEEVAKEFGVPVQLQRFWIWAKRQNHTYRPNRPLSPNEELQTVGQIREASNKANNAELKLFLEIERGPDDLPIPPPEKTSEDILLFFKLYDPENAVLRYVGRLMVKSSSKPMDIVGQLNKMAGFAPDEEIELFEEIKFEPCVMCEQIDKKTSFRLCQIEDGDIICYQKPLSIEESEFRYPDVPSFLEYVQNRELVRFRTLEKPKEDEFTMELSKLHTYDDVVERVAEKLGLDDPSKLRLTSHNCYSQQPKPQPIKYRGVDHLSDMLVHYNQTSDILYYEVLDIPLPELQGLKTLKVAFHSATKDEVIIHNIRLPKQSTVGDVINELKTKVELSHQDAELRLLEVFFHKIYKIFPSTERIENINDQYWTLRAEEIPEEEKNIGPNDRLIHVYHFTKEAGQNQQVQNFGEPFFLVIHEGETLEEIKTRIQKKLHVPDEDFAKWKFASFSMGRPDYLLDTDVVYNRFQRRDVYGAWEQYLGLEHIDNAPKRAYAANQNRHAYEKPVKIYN

B1: GIGANTEA (GI), yeast two-hybrid fusion (protein, UniProt Q9SQI2 1-1173)
chain: MASSSSSERWIDGLQFSSLLWPPPRDPQQHKDQVVAYVEYFGQFTSEQFPDDIAELVRHQYPSTEKRLLDDVLAMFVLHHPEHGHAVILPIISCLIDGSLVYSKEAHPFASFISLVCPSSENDYSEQWALACGEILRILTHYNRPIYKTEQQNGDTERNCLSKATTSGSPTSEPKAGSPTQHERKPLRPLSPWISDILLAAPLGIRSDYFRWCSGVMGKYAAGELKPPTIASRGSGKHPQLMPSTPRWAVANGAGVILSVCDDEVARYETATLTAVAVPALLLPPPTTSLDEHLVAGLPALEPYARLFHRYYAIATPSATQRLLLGLLEAPPSWAPDALDAAVQLVELLRAAEDYASGVRLPRNWMHLHFLRAIGIAMSMRAGVAADAAAALLFRILSQPALLFPPLSQVEGVEIQHAPIGGYSSNYRKQIEVPAAEATIEATAQGIASMLCAHGPEVEWRICTIWEAAYGLIPLNSSAVDLPEIIVATPLQPPILSWNLYIPLLKVLEYLPRGSPSEACLMKIFVATVETILSRTFPPESSRELTRKARSSFTTRSATKNLAMSELRAMVHALFLESCAGVELASRLLFVVLTVCVSHEAQSSGSKRPRSEYASTTENIEANQPVSNNQTANRKSRNVKGQGPVAAFDSYVLAAVCALACEVQLYPMISGGGNFSNSAVAGTITKPVKINGSSKEYGAGIDSAISHTRRILAILEALFSLKPSSVGTPWSYSSSEIVAAAMVAAHISELFRRSKALTHALSGLMRCKWDKEIHKRASSLYNLIDVHSKVVASIVDKAEPLEAYLKNTPVQKDSVTCLNWKQENTCASTTCFDTAVTSASRTEMNPRGNHKYARHSDEGSGRPSEKGIKDFLLDASDLANFLTADRLAGFYCGTQKLLRSVLAEKPELSFSVVSLLWHKLIAAPEIQPTAESTSAQQGWRQVVDALCNVVSATPAKAAAAVVLQAERELQPWIAKDDEEGQKMWKINQRIVKVLVELMRNHDRPESLVILASASDLLLRATDGMLVDGEACTLPQLELLEATARAIQPVLAWGPSGLAVVDGLSNLLKCRLPATIRCLSHPSAHVRALSTSVLRDIMNQSSIPIKVTPKLPTTEKNGMNSPSYRFFNAASIDWKADIQNCLNWEAHSLLSTTMPTQFLDTAARELGCTISLSQ
- binding [1]: binds
- binding [2]: binds
